# Data as given in the supplement of paper PMC11417369.
# The other results are listed elsewhere or left out.
# Test system: PF3D7_0420300 AP2 domain 1 (GST-tagged)
# Experiment: gcPBM binding intensity (ln(normalized median fluorescence intensity)); higher = stronger DNA binding
# Outline: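 GST-fused DNA-binding domains of P. falciparum, expressed in E. coli, were applied at about 25 μg on average for 1 h to an Agilent 4 × 180k array of primer-extended double-stranded 36-bp intergenic genomic probes and negative controls. Binding intensity is the highest Masliner-normalised natural-log median intensity across replicate spots of either probe orientation, measured with Alexa488 anti-GST antibody and a 488 nm scan.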
row,Sequence,gcPBM binding intensity (ln)
1,CATATATAAATATATACACACATACATACATACATA [CACACA_site5988],9.67
2,ATATTTGCATGTGGTAGTACATAACATTCTTTTACA [XGTACX_site8194],9.34
3,ATATCTTATAATACGGTGCACTTGACATGAACAACT [GTGCAC_site9987],9.35
4,ACATATTATATATGTGTGCACATATATATATATTTA [GTGCAC_site9591],9.6
5,CTTCAATTAAAATTCACACATATAAATTAAAATATT [CACACA_site6129],9.06
6,ATATATAATTAATTTTGTACACATAAAAAAAAAAAT [XGTACX_site6647],9.37
7,AGAGAGAAAGCTATAACATGCAACAATTTTTTGAAA [TGCATGCA_site514],9.25
8,CACCCCCACAGACACACACACACACCCATATATATA [CACACA_site364],10.3
9,AAGATTCATTGGTTCTGTACAAAATAAACACTATAA [XGTACX_site834],9.21
10,AATATATATATTTAAGTGCATAATATTGTAATATTA,9.19
11,TTACCAAAAAAATGTAGTACAATATAATATTATTTA [XGTACX_site5750],9.18
12,ATATATTATGAAGACTGTACATTTACATGAAAAAAA [XGTACX_site7203],9.31
13,ATAAAAATAAAAAGTGTGCACACAAAAATATATATA [GTGCAC_site9931],9.9
14,TTAATTGACATAAAAAGTACTCATATAGATATGCAC [XGTACX_site6391],9.15
15,AAAAAGAACAGAAACACACAAATAAAATAAAATTGT [CACACA_site6921],9.78
16,AAATGTTAATAAAGGTGTACACAAAATAAAAAAAAT [XGTACX_site463],9.71
17,TAATTTTATTTTATATGTACGCAATACAAATATATA [XGTACX_site8461],8.95
18,AAAGAAAGAAGAAATTGTACATAATAAATAAGTAAA [XGTACX_site3311],9.28
19,ATATAAACAATATTTTGTACATAATTTTATGAGCAT [XGTACX_site6933],9.25
20,GCATATGTTTATTGCACACACCAAAAAGAAAACATA [CACACA_site4384],9.59
21,ATTATTTGTTTAATGAGTACGAAGACAAATTTTACC [XGTACX_site5223],9.18
22,AAAGGAAAAAAAAGCACACACAATATTACTTGAAAT [CACACA_site2588],9.89
23,GTACTATACAAAGATGATAATCAATATATATATATA [XGTACX_negctrl_site264],9.22

row,Sequence,gcPBM binding intensity (ln)
1,TATATACACAGACACACACACACATACACGCACATA [CACACA_site6909],10.3
2,TTCACCAGTTGGTAAACATGCAATTTTCCATACAAG [TGCATGCA_site267],9.02
3,AAAAAAAACGGACACACACACATACCCATACATACA [CACACA_site5574],10.1
4,ATATAAATACATAAATGTACTTACCATTTAAATATG [XGTACX_site5254],9.14
5,ATTCTTTTAAAATAGGTGCTAAAAATAATATGTTAC,9.08
6,CTTTTGTCATTCTTTTGTACACAGTTTGAAATATGT [XGTACX_site1457],9.39
7,AAATAGAGAAATACAAGTACATATCAAACCAATATA [XGTACX_site1192],9.62
8,ATAATAAATAAATAATGTACATATGAAAGAATAAAT [XGTACX_site8355],9.63
9,ATAAAAAAGAAACAAACACACATACATACAAACAAA [CACACA_site4256],10.1
10,TACATTTATATATATACACACACACTAATAAAAAAA [CACACA_site8845],10
11,ATATGTATATATAAGGTGCAGAAAGGTGGGCAAAAG,9.75
12,TAAATACAGATATATACACACATATATATATTTTAT [CACACA_site5970],9.58
13,TCATATATTTTAATATGTACACATTTTTTTGGTATA [XGTACX_site8695],9.35
14,TTTTTCTTTATTAGCACACATAATATTATATATGTG [CACACA_site2629],9.16
15,TACAGACTAAAATACACACACACACGCACATATATA [CACACA_site7875],10.2
16,TAATAATAAAAATAAACACACATATATATGTATATA [CACACA_site2853],9.49
17,AAATTATATTCAAGTGCATGTAACTTATTATTATAT [TGCATGCA_site526],9.14
18,ATATTTATTTATTTATGTACGCACACAGTTGATATT [XGTACX_site5808],9.63
19,CACTATATAAGAACCTGTACTCAATTTTGCAATATA [XGTACX_site7238],9.22
20,TATATTTTCCTGCAAACACACATATAAATGTGTAGA [CACACA_site533],9.18
21,AAAATAAAATAAAAGTGTACGTTTTAAGAACATTGA [XGTACX_site2382],9.31
22,AACATGCTCAACTTTTTTTTTTTTTTTTTTTTTTTT [CACACA_negctrl_site1617],9.21
23,GTAAAAATAAAAACTGGTACACAAGTTGTTATAAAA [XGTACX_site502],9.27

row,Sequence,gcPBM binding intensity (ln)
1,CTTTTTTGTTAAAGTGTGCGCAATAGTTATAGACTT [GTGCAC_site9670],9.19
2,TATAATCAATATGTAACACACAAAAGTTATATACTT [CACACA_site7368],9.43
3,AATCTTAAAAATATATGTACTAAAAAAAAAAAAAAT [XGTACX_site6195],9.27
4,TATATATATATATATACACACTATATAATTCAAACA [CACACA_site4712],9.43
5,ATGAATAAATTAAAAATGCACACTTTGATGGGTACA [CACACA_site2157],9.43
6,AAACTTGTAAGAAACACACACACACCCATATATATA [CACACA_site797],10.1
7,AAATTGGGGCTTGTTACACACTTAGTGGGAGTTCTA [CACACA_site4485],9.44
8,TATACCAGTTTTAAAAGTACTTGTGCATAAAAAATA [XGTACX_site4794],9.14
9,TTACGATTATACAAAAGTACATGTATTACACAATAT [XGTACX_site5138],9.33
10,AAAAATTATAGAAAAGTGCAATACATGTTACACCAT,9.28
11,TACAATAAGGATAAGTGTACATATGTGCATACATAT [XGTACX_site7188],9.42
12,CATATAGCATAATCATGTACACATACAACAAATAGG [XGTACX_site1589],9.63
13,TTTTTATATTTAATGTGTCCTCACTTAAAAGGATGA [XGTACX_site2744],8.77
14,TATAATAATTATACATGTACACATTATTTGGATAAA [XGTACX_site5552],9.17
15,ATTCTCCAAGTTTGATGTACACATATGACGACGGCG [XGTACX_site4912],9.12
16,AATATATTTTTTGGTTGTACAGAGATCTTTGTAGAA [XGTACX_site1707],9.01
17,TTGTAATAAAGAATTAAAAAAAAATATATACAGGTA [GTGCAC_negctrl_site150],9.22
18,TATACCTTTTTATTCACACATATATGTCATATGTCA [CACACA_site5423],9.4
19,TATTACTTATAAATTACACACAAATGATTGAACATT [CACACA_site2259],9.44
20,TTAATTACATGTAATTGTACTTAATTATAAGACATT [XGTACX_site464],8.99
21,TTTTACCTAAATATCACACATATTTAAATATATATA [CACACA_site5597],9.24
22,TTAAAATAAAGAAAATGTACATAAATAAAAATAAAG [XGTACX_site2280],9.36
23,CAACTAATATTAAAACGTACATAAATATTTAACAGA [XGTACX_site625],9.46

row,Sequence,gcPBM binding intensity (ln)
1,ATCACATATATATATAATATATATATGTATATATTT [GTGCAC_negctrl_site249],8.98
2,ATATATATATATATATGTACATATATTTTTATTTAT [XGTACX_site3508],9.01
3,AAAAAAAATATATATGCACACACAAAAAAACAAATT [CACACA_site8349],9.87
4,AACATATATATATATACATGCATATGAACAACGAAT [TGCATGCA_site93],9.62
5,TATAAAAATGTTTACACACACACATAAATATATTTT [CACACA_site2512],9.93
6,TTTTTTTTTTTTCTGAGTACGAAAAATAGAGATAGA [XGTACX_site3825],8.67
7,TGTATAAATATAATCACACATATATATATATATATA [CACACA_site4365],9.15
8,AAGTTACAAAATCAAAAGGAAAAAATATAAAATAAT [CACACA_negctrl_site561],9.42
9,CAAGAAAATTGACACACACACATATTTATATTTATA [CACACA_site7766],10
10,AAAAAAAAATACATATGTACTTATGTATAATGTTGT [XGTACX_site8104],9.33
11,ATTATACCACCCGATATACACACTTGTAGACATCTT [CACACA_site7944],9.51
12,CATGTTATGATTCCATGTACTTATAGCATTAAAAAA [XGTACX_site8939],8.95
13,TTTTTTTAATTAGTTTGTACATATTGTTATAATATA [XGTACX_site6294],9.23
14,ATAAAAAGGAGACACACACACACACGCATATTTATA [CACACA_site6551],10.3
15,TATATTAAACCATGTAGTACCTTGAATAAATATTAT [XGTACX_site8254],9.23
16,ATAAGCTCATGCAGGTGTACACAAAAAGAAAAAAAA [XGTACX_site2433],9.29
17,ATAATGAAAAGGAACATACACACCCCATATAAATAT [CACACA_site3442],9.86
18,AAATTAAATGTAAGCACACATAAATTATACTCATAT [CACACA_site5782],9.36
19,ACTTATACAAAATGTGCATGTTATATTTACAATAAT [TGCATGCA_site108],9.4
20,GGAATAGTAATATATACACACAAATACATATATATA [CACACA_site67],9.8
21,TTTATTTTTTAATGATGTACTATTTATCCAGAAAAG [XGTACX_site7750],8.99
